The whole screen tested about 340,000 compounds, of which about 6,900 (2%) were called active. Rule as the data show it: active = inhibition above about 30%; inactive = below that, where a call was filed. The list shows a part of the results, in another mix than the full data. Entries without a call were filed so in the source.
Target: D(2) dopamine receptor (Homo sapiens) (UniProt P14416)
Test: HTS Assay for Allosteric Antagonists of the Human D2 Dopamine Receptor: Primary Screen for Antagonists; also: 0% is about no effect
Conditions: HEK293 TREx D2 cells, calcium flux, dopamine EC80; at 10 µM; stronger effect = higher value
How it was run: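 HEK293 T-REx D2 cells, tet-induced, calcium dye no-wash. Cpd pintool add, 180 s kinetic, then EC80 DA, 180 s kinetic. Ca flux read.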

UniProt P14416, sequence (P14416 whole entry, looked up): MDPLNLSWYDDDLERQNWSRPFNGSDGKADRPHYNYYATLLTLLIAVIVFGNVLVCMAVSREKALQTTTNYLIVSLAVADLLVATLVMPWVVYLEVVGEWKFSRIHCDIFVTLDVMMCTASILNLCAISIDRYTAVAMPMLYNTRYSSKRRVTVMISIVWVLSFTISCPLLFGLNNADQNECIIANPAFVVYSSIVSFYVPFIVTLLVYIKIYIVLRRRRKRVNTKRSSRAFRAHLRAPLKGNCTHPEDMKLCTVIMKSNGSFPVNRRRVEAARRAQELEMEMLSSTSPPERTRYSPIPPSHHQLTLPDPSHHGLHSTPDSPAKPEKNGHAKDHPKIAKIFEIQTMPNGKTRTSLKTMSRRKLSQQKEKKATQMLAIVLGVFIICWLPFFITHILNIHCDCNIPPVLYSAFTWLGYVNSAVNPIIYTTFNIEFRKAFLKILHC

Structure (SMILES) | inhibition
CCCS(=O)(=O)N1CCCC(C(=O)NCCCN2CCN(c3ccccc3F)CC2)C1 (stereo unspecified) | active: 38.1%
CC(=O)N1c2c(cc(Br)cc2S(=O)(=O)NCc2ccccc2Cl)CC1C (stereo unspecified) | -21.7%
Cc1ccc2oc(-c3ccc(NC(=O)c4cccc(F)c4)c(C)c3)nc2c1 | 13.1%
COc1cc(Cl)c(NC(=O)CN(C)S(=O)(=O)c2ccc3c(c2)CCCC(=O)N3)c(OC)c1 | 5.71%
COc1cc(NC(=O)N2CCC(CN3CCc4ccccc4C3)CC2)cc(OC)c1 | -17.9%
COc1ccc(C(=O)NCC(c2ccco2)N(C)C)cc1S(=O)(=O)NCc1ccc(Cl)cc1 (stereo unspecified) | active: 77.7%
Cc1ccc(-c2nnc(Nc3cccc(O)c3)c3ccccc23)cc1S(=O)(=O)N1CCCCC1 | -6.99%
CCOc1ccc(OCC)c(NC(=O)c2csc3c2CCCC3)c1 | 2.74%
COc1ccccc1NC(=O)c1oc2ccccc2c1NC(=O)COc1ccccc1OC | 0.0538%
COc1ccc(Cl)cc1NC(=O)CSc1nc(=O)[nH]c2c1CCCC2 | 17%
CCOc1ccc(NC(=O)Cn2cc(C(=O)c3ccccc3)c(=O)c3cc4c(cc32)OCO4)cc1 | -3.18%
Cc1ccc(Cn2c(=O)n(-c3ccc(C)c(C)c3)c(=O)c3c(C)c(C)sc32)cc1 | -3.03%
CCOC(=O)c1c(C)[nH]c(C)c1S(=O)(=O)N1CCC(C(=O)NCc2ccc(N(C)C)cc2)CC1 | -0.325%
CN(C)C1(CNC(=O)COc2ccc(C(C)(C)C)cc2)CCCCC1 | 3.81%
COc1ccccc1OCC(=O)Nc1c(C(=O)c2ccc(C)cc2)oc2ccccc12 | 12%
O=C(Nc1ccc2c(c1)OCO2)c1cc(-c2ccc(Cl)cc2)on1 | -1.62%
CCCCCn1c(-c2cccc(C)c2)nc2ccccc21 | 7.53%
COc1ccccc1CNS(=O)(=O)c1ccc(N2CCCCS2(=O)=O)cc1 | 6.12%
COc1ccc(OC)c(CCNC(=O)C(C)n2c(C)c3cnn(-c4ccccc4)c(=O)c3c2C)c1 (stereo unspecified) | 3.34%
COc1ccc(Cl)cc1C(=O)Nc1c2c(nn1-c1ccc(Cl)cc1)CS(=O)(=O)C2 | 27%
Cc1cc(C)cc(-n2ccnc(NCc3ccc(F)cc3)c2=O)c1 | 25.2%
COCCCNCCCOc1ccc(C)cc1Br | active: 38.4%
O=C1COc2cc(S(=O)(=O)CCC(=O)N3CCN(c4ccccc4)CC3)c(Cl)cc2N1 | -16.6%
Cc1ccc(S(=O)(=O)NCCc2nnc3ccc(SCC(=O)Nc4ccc(OC(F)(F)F)cc4)nn23)cc1 | 0.327%
CCCc1ccc(-c2ccc(C(=O)Oc3ccc(Br)cc3)cc2)nc1 | 1.8%
CCOc1ccc(NC(=O)Cn2c(=O)c(CNc3ccccc3)cc3cc4c(cc32)OCCO4)cc1 | 8.74%
